The results in this text go back to ChEMBL document CHEMBL4888484, “Replenishing the malaria drug discovery pipeline: Screening and hit evaluation of the MMV Hit Generation Library 1 (HGL1) against asexual blood stage Plasmodium falciparum ,using a nano luciferase reporter read-out” (2022).

As a reminder, the % Inhibition is the relative decrease from the control value, in per cent.

Out of some 150,000 compounds screened, about 540 (0.36%) showed an effect of 50% or more. Some of the results follow.

For this assay, the system named is Plasmodium falciparum. The assay is described as follows: Primary screen in NF54 nanoGlo assay, in single point, at 2uM, 72h; a lower Z score goes with more inhibition. Format: functional, Erythrocyte. As to conditions: timepoint 72 hour.
As to `CCC(C)N(C(=O)c1cc(OC)c(OC)c(OC)c1)C(C)CC` (stereo not given), the “% Inhibition” value is 0% and the Z score came to 0.04.
As to `O=C(CS(=O)(=O)[C@H]1CCOC1)N1CCCc2ccccc21`, the “% Inhibition” value was determined as 19% and the Z score is given as -2.42.
The matching figures for `O=C(N[C@@H](CCO)C1CCCC1)c1cc2n(n1)CCCC2=O`: -11% and 2.06.
For `Cc1nc(C)c(C(=O)N2CC(n3ccnc3)C2)s1`, in that order: -13% and 1.66.
`COC(=O)C1(CNC(=O)c2cc(Cl)c[nH]2)CCCCC1`: the “% Inhibition” value is -1% and the Z score is given as 0.13.
For `N[C@@H]1C[C@@H]2CC(C(=O)Nc3cnc4c(F)c(F)ccc4c3)C[C@@H]21` (stereo not given in full), in that order: -5% and 0.97.
The matching figures for `Cc1ccc(NC(=O)c2ccc3c(c2)nnn3C2CCCC2)cc1`: -6% and 0.75.
The matching figures for `O=C(Cc1cccc(O)c1)N1CCO[C@H](c2ccsc2)C1`: -13% and 1.57.
As for `CC[C@H]1CC[C@H](C(=O)N2CCC(C)C(O)C2)CC1` (stereo not given in full), the “% Inhibition” value was -6% and the Z score was 0.88.
In the case of `CCCNC(=O)c1nc(CCS(=O)(=O)c2ccc(C)cc2)no1`, the “% Inhibition” value is recorded as -5% and the Z score came to 0.79.
The matching figures for `COc1ccccc1N1C(=O)C2C(C)NC3(C(=O)N(Cc4ccc(F)cc4)c4ccccc43)C2C1=O` (stereo not given): 40% and -4.52.
For `Cc1ccc(C(=O)N2CC(C)CC(C)C2)cc1NCc1cc[nH]n1` (stereo not given), in that order: 0% and 0.04.
As to `CC1(C)CC(NC(=O)C2CCCO2)CC(C)(CNC(=O)C2CCCO2)C1` (stereo not given), the “% Inhibition” value is -14% and the Z score is 1.83.
The matching figures for `CO[C@H]1[C@H](NC(=O)c2cccs2)c2ccccc2C12CCN(Cc1c(F)cccc1F)CC2`: -20% and 2.49.
For `CC(C)[C@H](Nc1nccs1)C(=O)NC1CCCCC1`, in that order: -9% and 1.36.
The matching figures for `Cc1nnc(N2CCC[C@H](c3nc4c(s3)CCC4)C2)nc1C`: -8% and 1.5.
In the case of `CC(C)(C)c1nnnn1CCn1cccn1`, the “% Inhibition” value was -3% and the Z score was found to be 0.28.
Turning to `O=C1CCN(C(=O)C2CCN(S(=O)(=O)c3ccc4c(c3)CCC4)CC2)CCCCCCN1`, the “% Inhibition” value is recorded as -15% and the Z score came to 1.82.
For `CC1(C)Cc2nc(C(C)(C)C)ncc2[C@@H](NCc2cc(C#CCO)cs2)C1`, in that order: -6% and 1.15.
For `Fc1ccc(-c2nc(-c3ccc(N4CCCCC4)nc3)no2)cc1F`, in that order: 2% and -0.24.
Turning to `COc1ccc(Cl)cc1NC(=O)Cn1nc(Nc2cccc(F)c2)c(S(=O)(=O)c2ccc(C)cc2)c1N`, the “% Inhibition” value is -3% and the Z score is 0.34.
The matching figures for `Cc1cc(C)cc([C@H]2CCN(C(=O)c3cc(N4CCCC4=O)ccc3F)C2)c1`: -16% and 2.31.
For `NC(=NOCC(=O)NCCC1=CCCCC1)C1CCCC1`, in that order: -5% and 0.99.
With `CC1(C)C[C@@H](NC(=O)c2cnn(-c3ccncc3)c2)CCO1`, the “% Inhibition” value was -9% and the Z score was found to be 1.66.
Turning to `CC(C)S(=O)(=O)N1CCC(N2C[C@H](OCC3CC3)C23CCCCC3)CC1`, the “% Inhibition” value is on record as 7% and the Z score is on record as -1.15.
Regarding `Cc1ccn(Cc2nc(CC(C)C)no2)n1`, the “% Inhibition” value is reported as -7% and the Z score was found to be 0.89.
For `O=C(c1cccc(C(F)(F)F)c1)N1CCOc2ccc(CN3CCCC3)cc2C1`, in that order: -4% and 0.77.
The matching figures for `CCn1cc(NC(=O)c2cc(C3CC3)nc3onc(-c4cnn(CC)c4C)c23)c(C)n1`: 8% and -1.2.
The matching figures for `Nc1nnc(CCNC(=O)Cn2nnnc2CN2CCCCCC2)s1`: -18% and 2.39.
Take `CCNC(=O)N(Cc1ccccc1OS(=O)(=O)CC)CC1CC1`: the “% Inhibition” value stood at 3% and the Z score is listed as -0.36.
For `CC(C)CCn1c(CN2Cc3[nH]cnc3C[C@H]2C(=O)O)nc2ccccc21`, in that order: 5% and -0.93.
The matching figures for `O=C1c2[nH]nc(-c3ccc(Cl)cc3)c2[C@@H](c2cccnc2)N1CCc1c[nH]c2ccccc12`: 6% and -0.82.
The matching figures for `O=C(C[C@@H]1CCNC[C@@H]1Cc1cc(CC2CCCCC2)on1)N1CCN(Cc2ccccc2)CC1`: -4% and 0.74.
Turning to `CO[C@@]1(C(=O)NCc2ccc(Nc3ccncc3)cc2)CCOC1`, the “% Inhibition” value is reported as -1% and the Z score was determined as 0.12.
Turning to `CCC1(C(=O)NC)CCN(c2ncc(C#N)c(N)n2)CC1`, the “% Inhibition” value is reported as -11% and the Z score was 1.29.
For `O=C1C[C@H](NC(=O)Cc2ccc(OC(F)F)c(F)c2)CN1`, in that order: -9% and 1.61.
For `O=C(Nc1ccccc1F)c1cccc(-c2nc(-c3ccccc3)no2)c1`, in that order: -12% and 1.43.
The matching figures for `C[C@H]1C[C@@H](CO)CCN1C(=O)c1cc2ccc(C(F)(F)F)cc2[nH]1`: -7% and 0.69.
Regarding `Cc1ccc(C(=O)N2CCN(S(=O)(=O)c3ccc4c(c3)NC(=O)[C@H](C)O4)CC2)cc1`, the “% Inhibition” value is on record as -14% and the Z score is on record as 1.4.
For `CCN(CC)c1ncnc2c(-c3ccccc3)cn(CC(=O)N3CCN(c4ccccc4OC)CC3)c12`, in that order: -2% and 0.24.
